From article PMC12820563, “FoxP3 forms a head-to-head dimer in vivo and stabilizes its multimerization on adjacent microsatellites”
The other results are listed elsewhere or left out.

target: T1, MBP-FoxP1dN (Mus musculus, UniProt P58462 326-579); experiment: PD-seq (MBP pull-down with sequencing); 20 mM Tris-HCl pH 7.5, 100 mM NaCl, 1.5 mM MgCl2, 0.4 uM protein, 0.1 uM dsDNA library, 30 min, room temperature, amylose pull-down; high values mean tight binding; conditions: protein: recombinant; tags: His6-MBP; chain copies: 2; dsDNA, one strand shown
T1 sequence: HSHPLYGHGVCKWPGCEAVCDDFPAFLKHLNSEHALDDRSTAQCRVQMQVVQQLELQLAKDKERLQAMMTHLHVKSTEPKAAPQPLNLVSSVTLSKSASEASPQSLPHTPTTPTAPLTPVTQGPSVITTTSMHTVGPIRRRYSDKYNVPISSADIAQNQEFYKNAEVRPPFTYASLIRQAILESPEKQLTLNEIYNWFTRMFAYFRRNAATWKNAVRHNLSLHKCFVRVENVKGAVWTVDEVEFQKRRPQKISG
Procedure, shortened: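 A degenerate double-stranded DNA library, filled in with Klenow, was added at 0.1 µM to 0.4 µM His6-MBP-tagged mouse FoxP3 or FoxP1 fragment lacking the N-terminus, expressed in E. coli. Incubation lasted 30 min at room temperature in Tris pH 7.5 buffer with NaCl and MgCl2, after which complexes were collected on amylose resin, washed three times, digested with proteinase K to free the DNA, barcoded by PCR and sequenced by Illumina. Binding is the pooled-replicate reads-per-million enrichment of pull-down over input.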

Sequence | binding signal
GATGATTGTTCTCCCAGCTGATGAATTGCCGCCCTCGAGTAAACAAATTTTCCTAATCTTTCTGTTCAAGCGCCATCTAC | 0.912 RPM ratio (pull-down/input)
GATGATTGTTCTCCCAGCTGATGAATTTTATTGTTCGAGTAAACAAATTTTCCTAATCTTTCTGTTCAAGCGCCATCTAC | 2.31 RPM ratio (pull-down/input)
GATGATTGTTCTCCCAGCTGATGAATTGGTCCCCTCGAGTAAACAAATTTTCCTAATCTTTCTGTTCAAGCGCCATCTAC | 0.821 RPM ratio (pull-down/input)
GATGATTGTTCTCCCAGCTGATGAATTTGCTAACTCGAGTAAACAAATTTTCCTAATCTTTCTGTTCAAGCGCCATCTAC | 1.02 RPM ratio (pull-down/input)
GATGATTGTTCTCCCAGCTGATGAATTGCCCTATTCGAGTAAACAAATTTTCCTAATCTTTCTGTTCAAGCGCCATCTAC | 0.991 RPM ratio (pull-down/input)
GATGATTGTTCTCCCAGCTGATGAATTACTTCCCTCGAGTAAACAAATTTTCCTAATCTTTCTGTTCAAGCGCCATCTAC | 0.971 RPM ratio (pull-down/input)
GATGATTGTTCTCCCAGCTGATGAATTAGACCATTCGAGTAAACAAATTTTCCTAATCTTTCTGTTCAAGCGCCATCTAC | 0.914 RPM ratio (pull-down/input)
GATGATTGTTCTCCCAGCTGATGAATTGAATTATTCGAGTAAACAAATTTTCCTAATCTTTCTGTTCAAGCGCCATCTAC | 1.03 RPM ratio (pull-down/input)
GATGATTGTTCTCCCAGCTGATGAATTGGTAGCATCGAGTAAACAAATTTTCCTAATCTTTCTGTTCAAGCGCCATCTAC | 1.17 RPM ratio (pull-down/input)
GATGATTGTTCTCCCAGCTGATGAATTGAGCGAATCGAGTAAACAAATTTTCCTAATCTTTCTGTTCAAGCGCCATCTAC | 0.866 RPM ratio (pull-down/input)
GATGATTGTTCTCCCAGCTGATGAATTAAATGGATCGAGTAAACAAATTTTCCTAATCTTTCTGTTCAAGCGCCATCTAC | 0.969 RPM ratio (pull-down/input)
GATGATTGTTCTCCCAGCTGATGAATTTGAACAATCGAGTAAACAAATTTTCCTAATCTTTCTGTTCAAGCGCCATCTAC | 1.3 RPM ratio (pull-down/input)
GATGATTGTTCTCCCAGCTGATGAATTTAGTAAATCGAGTAAACAAATTTTCCTAATCTTTCTGTTCAAGCGCCATCTAC | 1.58 RPM ratio (pull-down/input)
GATGATTGTTCTCCCAGCTGATGAATTTTAACCATCGAGTAAACAAATTTTCCTAATCTTTCTGTTCAAGCGCCATCTAC | 0.987 RPM ratio (pull-down/input)
GATGATTGTTCTCCCAGCTGATGAATTATATCACTCGAGTAAACAAATTTTCCTAATCTTTCTGTTCAAGCGCCATCTAC | 0.986 RPM ratio (pull-down/input)
GATGATTGTTCTCCCAGCTGATGAATTATCATATTCGAGTAAACAAATTTTCCTAATCTTTCTGTTCAAGCGCCATCTAC | 1.06 RPM ratio (pull-down/input)
GATGATTGTTCTCCCAGCTGATGAATTACAGGCATCGAGTAAACAAATTTTCCTAATCTTTCTGTTCAAGCGCCATCTAC | 1.14 RPM ratio (pull-down/input)
GATGATTGTTCTCCCAGCTGATGAATTACATCGTTCGAGTAAACAAATTTTCCTAATCTTTCTGTTCAAGCGCCATCTAC | 1.06 RPM ratio (pull-down/input)
GATGATTGTTCTCCCAGCTGATGAATTGCGGTTATCGAGTAAACAAATTTTCCTAATCTTTCTGTTCAAGCGCCATCTAC | 1.17 RPM ratio (pull-down/input)
GATGATTGTTCTCCCAGCTGATGAATTGGTATACTCGAGTAAACAAATTTTCCTAATCTTTCTGTTCAAGCGCCATCTAC | 1.08 RPM ratio (pull-down/input)
GATGATTGTTCTCCCAGCTGATGAATTTCGACGTTCGAGTAAACAAATTTTCCTAATCTTTCTGTTCAAGCGCCATCTAC | 0.937 RPM ratio (pull-down/input)

Sequence | binding signal
GATGATTGTTCTCCCAGCTGATGAATTAAAATCATCGAGTAAACAAATTTTCCTAATCTTTCTGTTCAAGCGCCATCTAC | 1.09 RPM ratio (pull-down/input)
GATGATTGTTCTCCCAGCTGATGAATTCATTTCCTCGAGTAAACAAATTTTCCTAATCTTTCTGTTCAAGCGCCATCTAC | 0.805 RPM ratio (pull-down/input)
GATGATTGTTCTCCCAGCTGATGAATTTGACATGTCGAGTAAACAAATTTTCCTAATCTTTCTGTTCAAGCGCCATCTAC | 0.886 RPM ratio (pull-down/input)
GATGATTGTTCTCCCAGCTGATGAATTATCAATTTCGAGTAAACAAATTTTCCTAATCTTTCTGTTCAAGCGCCATCTAC | 1.12 RPM ratio (pull-down/input)
GATGATTGTTCTCCCAGCTGATGAATTGATAGGTTCGAGTAAACAAATTTTCCTAATCTTTCTGTTCAAGCGCCATCTAC | 0.902 RPM ratio (pull-down/input)
GATGATTGTTCTCCCAGCTGATGAATTAGACTTGTCGAGTAAACAAATTTTCCTAATCTTTCTGTTCAAGCGCCATCTAC | 0.89 RPM ratio (pull-down/input)
GATGATTGTTCTCCCAGCTGATGAATTCGTAACGTCGAGTAAACAAATTTTCCTAATCTTTCTGTTCAAGCGCCATCTAC | 1.01 RPM ratio (pull-down/input)
GATGATTGTTCTCCCAGCTGATGAATTGACTCCGTCGAGTAAACAAATTTTCCTAATCTTTCTGTTCAAGCGCCATCTAC | 0.991 RPM ratio (pull-down/input)
GATGATTGTTCTCCCAGCTGATGAATTCTCAAACTCGAGTAAACAAATTTTCCTAATCTTTCTGTTCAAGCGCCATCTAC | 0.811 RPM ratio (pull-down/input)
GATGATTGTTCTCCCAGCTGATGAATTCACCGCCTCGAGTAAACAAATTTTCCTAATCTTTCTGTTCAAGCGCCATCTAC | 0.899 RPM ratio (pull-down/input)
GATGATTGTTCTCCCAGCTGATGAATTCCTAGCTTCGAGTAAACAAATTTTCCTAATCTTTCTGTTCAAGCGCCATCTAC | 0.839 RPM ratio (pull-down/input)
GATGATTGTTCTCCCAGCTGATGAATTAGAGTCCTCGAGTAAACAAATTTTCCTAATCTTTCTGTTCAAGCGCCATCTAC | 0.859 RPM ratio (pull-down/input)
GATGATTGTTCTCCCAGCTGATGAATTCCGGCGCTCGAGTAAACAAATTTTCCTAATCTTTCTGTTCAAGCGCCATCTAC | 0.751 RPM ratio (pull-down/input)
GATGATTGTTCTCCCAGCTGATGAATTTAGTACATCGAGTAAACAAATTTTCCTAATCTTTCTGTTCAAGCGCCATCTAC | 1.21 RPM ratio (pull-down/input)
GATGATTGTTCTCCCAGCTGATGAATTTCGCTCATCGAGTAAACAAATTTTCCTAATCTTTCTGTTCAAGCGCCATCTAC | 0.842 RPM ratio (pull-down/input)
GATGATTGTTCTCCCAGCTGATGAATTTTAATTCTCGAGTAAACAAATTTTCCTAATCTTTCTGTTCAAGCGCCATCTAC | 0.922 RPM ratio (pull-down/input)
GATGATTGTTCTCCCAGCTGATGAATTTTGCAAGTCGAGTAAACAAATTTTCCTAATCTTTCTGTTCAAGCGCCATCTAC | 0.967 RPM ratio (pull-down/input)
GATGATTGTTCTCCCAGCTGATGAATTACTATTCTCGAGTAAACAAATTTTCCTAATCTTTCTGTTCAAGCGCCATCTAC | 1.14 RPM ratio (pull-down/input)
GATGATTGTTCTCCCAGCTGATGAATTTATGCTTTCGAGTAAACAAATTTTCCTAATCTTTCTGTTCAAGCGCCATCTAC | 1.55 RPM ratio (pull-down/input)
GATGATTGTTCTCCCAGCTGATGAATTCAACGTATCGAGTAAACAAATTTTCCTAATCTTTCTGTTCAAGCGCCATCTAC | 1.01 RPM ratio (pull-down/input)
GATGATTGTTCTCCCAGCTGATGAATTCTAACGTTCGAGTAAACAAATTTTCCTAATCTTTCTGTTCAAGCGCCATCTAC | 0.876 RPM ratio (pull-down/input)

Sequence | binding signal
GATGATTGTTCTCCCAGCTGATGAATTCGCAGGATCGAGTAAACAAATTTTCCTAATCTTTCTGTTCAAGCGCCATCTAC | 0.876 RPM ratio (pull-down/input)
GATGATTGTTCTCCCAGCTGATGAATTTTACTACTCGAGTAAACAAATTTTCCTAATCTTTCTGTTCAAGCGCCATCTAC | 0.886 RPM ratio (pull-down/input)
GATGATTGTTCTCCCAGCTGATGAATTAGTAGTTTCGAGTAAACAAATTTTCCTAATCTTTCTGTTCAAGCGCCATCTAC | 1.03 RPM ratio (pull-down/input)
GATGATTGTTCTCCCAGCTGATGAATTCAGCGTGTCGAGTAAACAAATTTTCCTAATCTTTCTGTTCAAGCGCCATCTAC | 0.872 RPM ratio (pull-down/input)
GATGATTGTTCTCCCAGCTGATGAATTTTGTTCATCGAGTAAACAAATTTTCCTAATCTTTCTGTTCAAGCGCCATCTAC | 1.1 RPM ratio (pull-down/input)
GATGATTGTTCTCCCAGCTGATGAATTTAAGGAGTCGAGTAAACAAATTTTCCTAATCTTTCTGTTCAAGCGCCATCTAC | 0.82 RPM ratio (pull-down/input)
GATGATTGTTCTCCCAGCTGATGAATTCTATCGATCGAGTAAACAAATTTTCCTAATCTTTCTGTTCAAGCGCCATCTAC | 0.92 RPM ratio (pull-down/input)
GATGATTGTTCTCCCAGCTGATGAATTCGAAACTTCGAGTAAACAAATTTTCCTAATCTTTCTGTTCAAGCGCCATCTAC | 0.816 RPM ratio (pull-down/input)
GATGATTGTTCTCCCAGCTGATGAATTCCTATGATCGAGTAAACAAATTTTCCTAATCTTTCTGTTCAAGCGCCATCTAC | 0.81 RPM ratio (pull-down/input)
GATGATTGTTCTCCCAGCTGATGAATTGCCCAAGTCGAGTAAACAAATTTTCCTAATCTTTCTGTTCAAGCGCCATCTAC | 0.886 RPM ratio (pull-down/input)
GATGATTGTTCTCCCAGCTGATGAATTCCCGTTGTCGAGTAAACAAATTTTCCTAATCTTTCTGTTCAAGCGCCATCTAC | 0.907 RPM ratio (pull-down/input)
GATGATTGTTCTCCCAGCTGATGAATTTCCACGATCGAGTAAACAAATTTTCCTAATCTTTCTGTTCAAGCGCCATCTAC | 0.845 RPM ratio (pull-down/input)
GATGATTGTTCTCCCAGCTGATGAATTAACTGACTCGAGTAAACAAATTTTCCTAATCTTTCTGTTCAAGCGCCATCTAC | 0.81 RPM ratio (pull-down/input)
GATGATTGTTCTCCCAGCTGATGAATTACAGTTATCGAGTAAACAAATTTTCCTAATCTTTCTGTTCAAGCGCCATCTAC | 1.31 RPM ratio (pull-down/input)
GATGATTGTTCTCCCAGCTGATGAATTGTCTGGTTCGAGTAAACAAATTTTCCTAATCTTTCTGTTCAAGCGCCATCTAC | 0.946 RPM ratio (pull-down/input)
GATGATTGTTCTCCCAGCTGATGAATTTGCATATTCGAGTAAACAAATTTTCCTAATCTTTCTGTTCAAGCGCCATCTAC | 1.17 RPM ratio (pull-down/input)
GATGATTGTTCTCCCAGCTGATGAATTGCTAACGTCGAGTAAACAAATTTTCCTAATCTTTCTGTTCAAGCGCCATCTAC | 1.04 RPM ratio (pull-down/input)
GATGATTGTTCTCCCAGCTGATGAATTTAGCCGTTCGAGTAAACAAATTTTCCTAATCTTTCTGTTCAAGCGCCATCTAC | 0.829 RPM ratio (pull-down/input)
GATGATTGTTCTCCCAGCTGATGAATTCGTGCATTCGAGTAAACAAATTTTCCTAATCTTTCTGTTCAAGCGCCATCTAC | 1.2 RPM ratio (pull-down/input)
GATGATTGTTCTCCCAGCTGATGAATTTGTTCTCTCGAGTAAACAAATTTTCCTAATCTTTCTGTTCAAGCGCCATCTAC | 1.09 RPM ratio (pull-down/input)
GATGATTGTTCTCCCAGCTGATGAATTAGGTCGATCGAGTAAACAAATTTTCCTAATCTTTCTGTTCAAGCGCCATCTAC | 0.891 RPM ratio (pull-down/input)
